Reference: PubChem BioAssay (Tox21)
Where “and” joins values, the source holds several entries; their conditions need not be identical. Equal values may be shown once. This list was built around the results that the source calls inconclusive (neither active nor inactive); the mix of calls is not that of the screen. For some assays here: A potency beside an inconclusive call is a rough fit, not a confirmed value. Calls of active or inactive are those of the source. Unless noted, calls come from the whole dose curve; as a rule, active = well fitted curve in the direction sought with a large enough effect in the repeat runs; inconclusive = weak or mixed curves; inactive = no such curve, though single readings can be large; an effect the other way counts as inactive or inconclusive.

Experiments:
[1] = target: Glucocorticoid receptor (Homo sapiens) (UniProt P04150); assay: qHTS assay to identify small molecule antagonists of the glucocorticoid receptor (GR) signaling pathway (AID 720692; active = well fitted inhibition curve with a large enough effect in the signal ratio in the repeat runs, not every such curve was filed as active; inconclusive = weak or mixed curves, or effect the other way; inactive = no such curve, though single readings can be large or run the other way; the % refers to the signal ratio; note: potency is the fitted concentration of half-maximal effect); settings: GR-bla HeLa, beta-lactamase FRET ratio, dexamethasone-stimulated, 18 h; activity change, negative = inhibition: at 58.5 µM (top of the series) unless noted
Chain of UniProt P04150 (P04150 whole entry, looked up): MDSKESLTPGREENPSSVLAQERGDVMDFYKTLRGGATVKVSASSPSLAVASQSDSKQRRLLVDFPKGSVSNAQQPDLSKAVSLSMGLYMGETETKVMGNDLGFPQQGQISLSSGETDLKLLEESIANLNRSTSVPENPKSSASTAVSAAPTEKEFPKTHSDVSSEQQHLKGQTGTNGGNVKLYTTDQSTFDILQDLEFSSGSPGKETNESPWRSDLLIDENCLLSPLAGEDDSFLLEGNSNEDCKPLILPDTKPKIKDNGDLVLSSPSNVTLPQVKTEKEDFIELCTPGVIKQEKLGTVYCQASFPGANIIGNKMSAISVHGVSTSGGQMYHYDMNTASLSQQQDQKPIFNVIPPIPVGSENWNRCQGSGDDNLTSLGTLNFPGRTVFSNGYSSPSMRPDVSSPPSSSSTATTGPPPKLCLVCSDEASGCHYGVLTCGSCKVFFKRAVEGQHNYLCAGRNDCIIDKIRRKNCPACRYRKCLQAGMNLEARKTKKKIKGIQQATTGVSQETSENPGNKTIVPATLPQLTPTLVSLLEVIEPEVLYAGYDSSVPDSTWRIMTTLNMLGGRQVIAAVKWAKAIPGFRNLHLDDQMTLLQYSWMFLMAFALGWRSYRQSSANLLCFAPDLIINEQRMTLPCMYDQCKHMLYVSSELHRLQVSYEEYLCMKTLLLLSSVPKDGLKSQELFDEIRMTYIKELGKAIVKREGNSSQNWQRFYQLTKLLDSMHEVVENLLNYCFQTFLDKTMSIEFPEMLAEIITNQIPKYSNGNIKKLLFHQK
Summary of the method: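 GR-bla HeLa cells (beta-lactamase reporter under glucocorticoid response element) were pre-plated 4 h at 37 C, treated with compounds plus 5 nM dexamethasone (final) for 18 h, then read by LiveBLAzer B/G FRET fluorescence after 2 h.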

[2] = qHTS assay for identifying genotoxic compounds that show differential cytotoxicity against isogenic chicken DT40 cell lines with known DNA damage response pathways - wild type cell line (AID 743012); settings: DT40 wild type chicken cells viability, CellTiter-Glo, 40 h; activity change, negative = cytotoxicity: at 68.4 µM (top of the series) unless noted; note: nearly all actives have a fitted effect of over 60% in size; note: potency is the fitted concentration of half-maximal effect; for activity change, negative = cytotoxicity: % is set by controls: 0 for no effect and ±100 for the full control effect
Summary of the method: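 Parental DNA repair-proficient DT40 cells, 300 per well, were pre-incubated ~0.5 h at 37 C/5% CO2, pin-dosed with compounds in DMSO, then incubated 40 h. Viability was read as CellTiter-Glo luminescence after 30 min at room temperature.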

[3] = qHTS assay for identifying genotoxic compounds that show differential cytotoxicity against isogenic chicken DT40 cell lines with known DNA damage response pathways - Rev3 mutant cell line (AID 743014); settings: chicken DT40 Rev3-/- viability, CellTiter-Glo, 40 h; activity, negative = cytotoxicity: at 68.4 µM (top of the series) unless noted; note: nearly all actives have a fitted effect of over 55% in size; note: potency is the fitted concentration of half-maximal effect
[4] = qHTS assay to identify small molecule antagonists of the thyroid receptor (TR) signaling pathway - cell viability counter screen (AID 743064); settings: GH3.TRE-Luc viability, CellTiter-Fluor, 24 h; activity change, negative = cytotoxic: at 70.3 µM (top of the series) unless noted; note: nearly all actives have a fitted effect of over 50% in size; note: potency is the fitted concentration of half-maximal effect
Summary of the method: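 Plate GH3.TRE-Luc cells; incubate 4 h at 37 °C; add compound, then T3 to 1 nM final; incubate 23.5 h; add CellTiter-Fluor; incubate 30 min at 37 °C, 5% CO2; read fluorescence.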

[5] = qHTS assay to identify small molecule antagonists of the thyroid receptor (TR) signaling pathway (AID 743065); note: % is set by controls: 0 for no effect and ±100 for the full control effect; nearly all actives have a fitted effect of over 55% in size
Summary of the method: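 GH3.TRE-Luc rat pituitary cells carrying two TR response elements driving luciferase were plated for 4 h, given compound plus 1 nM T3 (final), and incubated 23.5 h at 37 C. ONE-Glo luminescence measured reporter inhibition; CellTiter-Fluor fluorescence tracked cytotoxicity.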

[6] = qHTS assay to identify small molecule antagonists of the estrogen receptor alpha (ER-alpha) signaling pathway - cell viability counter screen (AID 743074; calls by dose curve;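 note: HEK293 cells carrying ER-alpha-UAS-bla reporter stimulated with 17beta-estradiol; nearly all actives have a fitted effect of over 45% in size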; note: potency is the fitted concentration of half-maximal effect; for activity, negative = cytotoxicity: % is set by controls: 0 for no effect and ±100 for the full control effect)
[7] = target: Peroxisome proliferator-activated receptor gamma (Homo sapiens) (UniProt P37231); assay: qHTS assay to identify small molecule agonists of the peroxisome proliferator-activated receptor gamma (PPARg) signaling pathway (AID 743094; active = well fitted activation curve with a large enough effect in the signal ratio in the repeat runs, not every such curve was filed as active; inconclusive = weak or mixed curves, or effect the other way; inactive = no such curve, though single readings can be large or run the other way; the % refers to the signal ratio; note: potency is the fitted concentration of half-maximal effect); settings: HEK293H PPARg-UAS-bla, beta-lactamase FRET ratio, 17 h; activation: at 57 µM (top of the series) unless noted
Chain of UniProt P37231 (P37231 whole entry, looked up): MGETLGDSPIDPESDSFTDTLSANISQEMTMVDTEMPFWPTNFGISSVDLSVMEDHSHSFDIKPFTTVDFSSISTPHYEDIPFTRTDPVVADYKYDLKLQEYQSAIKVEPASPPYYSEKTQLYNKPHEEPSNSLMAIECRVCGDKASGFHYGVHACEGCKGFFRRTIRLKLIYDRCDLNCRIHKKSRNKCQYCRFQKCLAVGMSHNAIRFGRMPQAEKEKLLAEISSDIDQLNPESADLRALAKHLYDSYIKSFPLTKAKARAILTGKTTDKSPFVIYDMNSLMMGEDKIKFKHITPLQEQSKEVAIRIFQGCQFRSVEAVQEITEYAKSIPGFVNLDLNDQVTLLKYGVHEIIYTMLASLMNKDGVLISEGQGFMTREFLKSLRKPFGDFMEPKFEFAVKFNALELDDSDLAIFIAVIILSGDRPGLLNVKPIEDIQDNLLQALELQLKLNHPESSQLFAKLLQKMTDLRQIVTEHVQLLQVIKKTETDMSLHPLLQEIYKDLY
Summary of the method: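 GeneBLAzer PPARg UAS-bla HEK293H cells carrying a stably integrated beta-lactamase reporter were pre-incubated 5 h at 37C, then exposed to compounds in DMSO for 17 h at 37C; LiveBLAzer B/G FRET substrate was added for 1 h at room temperature and fluorescence read.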

[8] = target: Aryl hydrocarbon receptor (Homo sapiens) (UniProt P35869); assay: qHTS assay to identify small molecule that activate the aryl hydrocarbon receptor (AhR) signaling pathway (AID 743085); note: nearly all actives have a fitted effect of over 15% in size; note: potency is the fitted concentration of half-maximal effect
Chain of UniProt P35869 (P35869 whole entry, looked up): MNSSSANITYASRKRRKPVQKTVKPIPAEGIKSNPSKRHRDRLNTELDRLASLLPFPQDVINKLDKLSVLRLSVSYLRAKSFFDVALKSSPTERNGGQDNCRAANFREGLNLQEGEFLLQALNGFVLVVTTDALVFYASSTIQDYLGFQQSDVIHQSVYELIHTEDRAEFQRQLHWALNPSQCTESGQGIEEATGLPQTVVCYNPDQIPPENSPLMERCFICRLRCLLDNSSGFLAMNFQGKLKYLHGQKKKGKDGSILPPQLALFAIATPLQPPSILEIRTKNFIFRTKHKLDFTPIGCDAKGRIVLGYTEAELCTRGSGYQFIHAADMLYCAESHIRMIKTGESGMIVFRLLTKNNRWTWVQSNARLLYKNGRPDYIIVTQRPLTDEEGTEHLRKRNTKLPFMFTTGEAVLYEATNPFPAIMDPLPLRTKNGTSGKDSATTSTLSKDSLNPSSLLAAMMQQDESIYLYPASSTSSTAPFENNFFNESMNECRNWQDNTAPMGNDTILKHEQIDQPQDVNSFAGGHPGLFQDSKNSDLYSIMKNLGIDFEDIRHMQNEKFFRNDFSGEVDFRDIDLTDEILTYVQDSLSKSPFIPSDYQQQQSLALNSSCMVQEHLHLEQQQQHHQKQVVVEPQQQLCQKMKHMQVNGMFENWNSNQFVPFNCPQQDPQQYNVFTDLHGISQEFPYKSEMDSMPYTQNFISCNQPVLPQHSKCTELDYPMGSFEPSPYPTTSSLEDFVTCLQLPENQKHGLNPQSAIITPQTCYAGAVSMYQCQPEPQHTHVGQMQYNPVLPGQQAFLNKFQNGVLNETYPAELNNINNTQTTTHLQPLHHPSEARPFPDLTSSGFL
Summary of the method: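 Steps: seed HepG2-AhR-luc cells; allow 5 h at 37C; pin-transfer test compound or vehicle; incubate 24 h at 37C; add viability dye (30 min, 37C) and read fluorescence; add luciferase substrate (30 min, RT) and read luminescence.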

[9] = target: Estrogen receptor (Homo sapiens) (UniProt P03372); assay: qHTS assay to identify small molecule agonists of the estrogen receptor alpha (ER-alpha) signaling pathway using the BG1 cell line (AID 743079); settings: BG1Luc4E2 cells, ERE-luciferase agonist, 22 h; activation: at 70.3 µM (top of the series) unless noted; note: nearly all actives have a fitted effect of over 20% in size; note: potency is the fitted concentration of half-maximal effect
Chain of UniProt P03372 (P03372 whole entry, looked up): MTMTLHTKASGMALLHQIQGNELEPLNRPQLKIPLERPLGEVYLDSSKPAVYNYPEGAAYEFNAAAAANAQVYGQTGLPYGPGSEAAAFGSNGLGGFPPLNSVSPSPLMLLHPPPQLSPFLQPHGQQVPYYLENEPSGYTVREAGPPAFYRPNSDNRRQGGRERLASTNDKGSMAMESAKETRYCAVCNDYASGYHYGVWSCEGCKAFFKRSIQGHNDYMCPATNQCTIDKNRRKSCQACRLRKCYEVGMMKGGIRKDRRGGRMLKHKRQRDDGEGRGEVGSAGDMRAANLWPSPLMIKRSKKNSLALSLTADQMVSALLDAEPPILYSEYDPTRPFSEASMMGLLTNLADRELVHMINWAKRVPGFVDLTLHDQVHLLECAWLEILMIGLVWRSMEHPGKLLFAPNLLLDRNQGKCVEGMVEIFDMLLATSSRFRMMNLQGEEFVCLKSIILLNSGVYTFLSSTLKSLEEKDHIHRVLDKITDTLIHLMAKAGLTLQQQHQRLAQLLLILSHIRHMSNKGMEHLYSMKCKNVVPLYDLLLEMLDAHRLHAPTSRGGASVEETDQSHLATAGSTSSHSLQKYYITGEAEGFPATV

[10] = qHTS assay to identify aromatase inhibitors - cell viability counter screen (AID 743084); settings: MCF-7 aro ERE viability, CellTiter-Fluor, 24 h; activity change, negative = cytotoxicity: at 70.3 µM (top of the series) unless noted;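 note: cells stimulated with testosterone during compound exposure; nearly all actives have a fitted effect of over 55% in size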; note: potency is the fitted concentration of half-maximal effect
[11] = qHTS assay to identify small molecule antagonists of the androgen receptor (AR) signaling pathway - cell viability counter screen (AID 743033; note: nearly all actives have a fitted effect of over 45% in size; note: potency is the fitted concentration of half-maximal effect); settings: AR-bla HEK293 viability, CellTiter-Glo luminescence, 16 h; activity change, negative = cytotoxicity: at 58.5 µM (top of the series) unless noted
[12] = target: Estrogen receptor (Homo sapiens) (UniProt P03372); assay: qHTS assay to identify small molecule agonists of the estrogen receptor alpha (ER-alpha) signaling pathway (AID 743075; calls by dose curve; note: potency is the fitted concentration of half-maximal effect); settings: HEK293 ER-alpha-UAS-bla, beta-lactamase FRET ratio, 18 h; activation: at 70.1 µM (top of the series)
[13] = qHTS assay to identify small molecule antagonists of the estrogen receptor alpha (ER-alpha) signaling pathway using the BG1 cell line (AID 743080; calls by dose curve;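 note: BG1 cells stimulated with 17beta-estradiol alongside compound; nearly all actives have a fitted effect of over 25% in size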; note: potency is the fitted concentration of half-maximal effect); settings: BG1Luc4E2 ERE-luciferase antagonist mode, luminescence; activity change, negative = inhibition: at 70.3 µM (top of the series) unless noted
Summary of the method: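 Seeding, 24 h rest, compound transfer from DMSO, 17beta-estradiol addition, 21.5 h incubation, CellTiter-Fluor (30 min, 37 C), then ONE-Glo (30 min, room temperature): this sequence was run on BG1-Luc-4E2 reporter cells.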

[14] = qHTS assay to identify small molecule that activate the aryl hydrocarbon receptor (AhR) signaling pathway - cell viability counter screen (AID 743086); note: nearly all actives have a fitted effect of over 45% in size; note: potency is the fitted concentration of half-maximal effect
Summary of the method: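 HepG2-AhR-luc (HG2L7.5c1) cells, 4000/well, were preincubated 5 h at 37C, exposed to compound in qHTS format for 24 hr at 37C, then given CellTiter-Fluor for 30 min; viability was read as fluorescence in the reporter wells.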

[15] = qHTS assay for identifying genotoxic compounds that show differential cytotoxicity against isogenic chicken DT40 cell lines with known DNA damage response pathways - Rad54/Ku70 mutant cell line (AID 743015); settings: DT40 Rad54/Ku70 mutant viability, CellTiter-Glo, 40 h; activity change, negative = cytotoxicity: at 66.8 µM (top of the series) unless noted; note: potency is the fitted concentration of half-maximal effect; nearly all actives have a fitted effect of over 60% in size
[16] = target: Androgen receptor (Homo sapiens) (UniProt P10275); assay: qHTS assay to identify small molecule antagonists of the androgen receptor (AR) signaling pathway (AID 743035; active = well fitted inhibition curve with a large enough effect in the signal ratio in the repeat runs, not every such curve was filed as active; inconclusive = weak or mixed curves, or effect the other way; inactive = no such curve, though single readings can be large or run the other way; the % refers to the signal ratio; note: potency is the fitted concentration of half-maximal effect); settings: HEK293 AR-UAS-bla, R1881-stimulated, beta-lactamase FRET, 16 h; activity change, negative = inhibition: at 58.5 µM (top of the series) unless noted
Chain of UniProt P10275 (P10275 whole entry, looked up): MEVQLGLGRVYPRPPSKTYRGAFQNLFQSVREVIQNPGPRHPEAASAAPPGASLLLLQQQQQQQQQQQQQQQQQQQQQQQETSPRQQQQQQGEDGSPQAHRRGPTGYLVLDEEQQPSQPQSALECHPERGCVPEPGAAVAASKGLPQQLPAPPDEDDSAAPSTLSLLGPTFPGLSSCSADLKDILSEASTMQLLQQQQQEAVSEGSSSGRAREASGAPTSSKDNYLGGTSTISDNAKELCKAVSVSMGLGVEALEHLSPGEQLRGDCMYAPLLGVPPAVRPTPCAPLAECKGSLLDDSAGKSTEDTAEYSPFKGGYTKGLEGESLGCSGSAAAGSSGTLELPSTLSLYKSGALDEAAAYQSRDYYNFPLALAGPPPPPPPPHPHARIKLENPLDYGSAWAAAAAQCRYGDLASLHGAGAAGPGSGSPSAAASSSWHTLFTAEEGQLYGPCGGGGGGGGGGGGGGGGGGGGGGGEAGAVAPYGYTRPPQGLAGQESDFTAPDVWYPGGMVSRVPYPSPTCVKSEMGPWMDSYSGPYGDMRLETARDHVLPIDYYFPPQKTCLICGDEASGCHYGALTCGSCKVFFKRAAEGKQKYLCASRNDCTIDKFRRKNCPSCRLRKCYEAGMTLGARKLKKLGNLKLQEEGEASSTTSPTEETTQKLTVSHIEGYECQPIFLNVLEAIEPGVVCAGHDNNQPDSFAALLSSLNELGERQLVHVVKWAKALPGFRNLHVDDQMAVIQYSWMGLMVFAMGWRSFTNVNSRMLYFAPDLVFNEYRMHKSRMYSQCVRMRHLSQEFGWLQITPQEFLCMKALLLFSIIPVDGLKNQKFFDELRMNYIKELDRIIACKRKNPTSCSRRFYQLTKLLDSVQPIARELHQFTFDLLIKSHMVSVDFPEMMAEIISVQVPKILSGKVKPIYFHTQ
Summary of the method: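 HEK293 cells stably carrying a UAS-driven beta-lactamase reporter (AR-UAS-bla GripTite) were plated for 4 h at 37C, then given compound and the agonist R1881 and incubated 16 h. Reporter activity was read by LiveBLAzer B/G FRET fluorescence after 2 h at room temperature.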

[17] = target: Androgen receptor (Homo sapiens) (UniProt P10275); assay: qHTS assay to identify small molecule agonists of the androgen receptor (AR) signaling pathway (AID 743036; active = well fitted activation curve with a large enough effect in the signal ratio in the repeat runs, with a control signal flat, not every such curve was filed as active; inconclusive = weak or mixed curves, or effect the other way; inactive = no such curve, though single readings can be large or run the other way; the % refers to the signal ratio; note: % is set by controls: 0 for no effect and ±100 for the full control effect); settings: HEK293 AR-UAS-bla GripTite, beta-lactamase FRET ratio, 16 h; activation: at 62.4 µM (top of the series) unless noted
Summary of the method: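 Reporter line: GeneBLAzer AR-UAS-bla-GripTite (HEK293). Steps: plate cells, 4 h rest, add compounds, 16 h at 37C, add LiveBLAzer B/G substrate, 2 h at RT, read fluorescence.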

[18] = qHTS assay to identify small molecule antagonists of the estrogen receptor alpha (ER-alpha) signaling pathway using the BG1 cell line - cell viability counter screen (AID 743081); settings: BG1Luc4E2 viability, CellTiter-Fluor, 22 h; activity change, negative = cytotoxicity: at 70.3 µM (top of the series) unless noted;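 note: compound given together with 17beta-estradiol as the ER stimulus; nearly all actives have a fitted effect of over 45% in size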; note: potency is the fitted concentration of half-maximal effect
[19] = system: thyroid hormone receptor (rat, GH3 cells); assay: qHTS assay to identify small molecule agonists of the thyroid receptor (TR) signaling pathway (AID 743066; calls by dose curve; note: % is set by controls: 0 for no effect and ±100 for the full control effect); settings: GH3.TRE-Luc cells, TR agonist luciferase, 24 h; activation: at 83.9 µM (top of the series) unless noted
[20] = target: Estrogen receptor (Homo sapiens) (UniProt P03372); assay: qHTS assay to identify small molecule antagonists of the estrogen receptor alpha (ER-alpha) signaling pathway (AID 743069; active = well fitted curve in the direction sought with a large enough effect in the signal ratio in the repeat runs, not every such curve was filed as active; inconclusive = weak or mixed curves, or effect the other way; inactive = no such curve, though single readings can be large or run the other way; the % refers to the signal ratio; note: potency is the fitted concentration of half-maximal effect); settings: HEK293 ER-alpha-UAS-bla, beta-lactamase ratio, antagonist mode; activity, negative = inhibition: at 69.4 µM (top of the series) unless noted
Summary of the method: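 Estradiol-stimulated ER-alpha-UAS-bla HEK293 cells, 18 hr compound exposure at 37C. LiveBLAzer B/G substrate, 2 hr RT, fluorescence read.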
Tags give direction and shape of the fitted curve or compound fluorescence and quenching.

In the case of `CC(C)CCC[C@@H](C)[C@H]1CC[C@H]2[C@@H]3CC[C@@H]4C[C@H](O)CC[C@]4(C)[C@H]3CC[C@]12C`, the Potency [1] is reported as inconclusive: 6.01 µM [activator, single point], the Potency [2] is reported as “inactive” and the Potency [3] is reported as inconclusive: 16.8 µM [cytotoxic, partial curve, poor fit]. The Potency [4] was inconclusive: 2.37 µM [rising, partial curve], the Potency [5] was “inactive” and the Potency [6] was “inactive”. For the same molecule, the Potency [7] was “inactive”.
For `O=C1NC(=O)[C@H]2[C@@H]1[C@@H]1C=C[C@H]2C1`, the Potency [1] was “inactive”, the Potency [3] was “inactive” and the Potency [8] was “inactive”.
In the case of `CCCCCCCCCCCCCCCC(=O)OC[C@@H](O)[C@H]1OC[C@H](O)[C@H]1O`, the Potency [1] is reported as inconclusive: 8.49 µM [activator, partial curve], the Potency [6] is reported as inconclusive: 9.52 µM [cytotoxic, partial curve, poor fit] and the Potency [9] is reported as “inactive”. For the same molecule, the Potency [10] was “inactive”.
With `FC(F)(F)C(F)(F)C(F)(F)C(F)(F)C(F)(F)C(F)(F)F` the Potency [1] was “inactive” and the Potency [4] was inconclusive: 15 µM [rising, partial curve, poor fit].
With `CCCCC[C@H](O)/C=C/[C@@H]1[C@@H](C/C=C\CCCC(=O)O)[C@@H](O)C[C@H]1O` the Potency [1] was inconclusive: 2.88 µM [activator, full curve] and inconclusive: 190 nM [fluorescent, full curve, poor fit], the Potency [3] was inconclusive: 5.07 µM [rising, partial curve, poor fit] and the Potency [11] was “inactive”. The Potency [12] was inconclusive: 1.81 µM [activator, full curve, poor fit] and inconclusive: 2.39 µM [activator, partial curve], the Potency [9] was inconclusive: 16 µM [activator, partial curve, poor fit] and active: 29.8 µM and the Potency [13] was inconclusive: 3.2 nM [rising, full curve] and inconclusive: 29.8 nM [rising, full curve]. The Potency [14] was “inactive”.
For `CCN(CC)c1ccc(N=Nc2ccc(S(=O)(=O)N(C)C)cc2)c(S(=O)(=O)NCC[n+]2ccccc2)c1`, the Potency [2] was inconclusive: 29.8 µM [cytotoxic], the Potency [15] was inconclusive: 33.5 µM [cytotoxic, single point] and the Potency [16] was “inactive”. For the same molecule, the Potency [17] was “inactive”, the activation [9] was inconclusive: 8.43% [phenotype inactive] and the Potency [18] was inconclusive: 16.8 µM [cytotoxic, single point]. For the same molecule, the Potency [8] was inconclusive: 26.6 µM [activator, single point].
In the case of `CC(CNC(=O)c1cccnc1)NC(=O)c1cccnc1` (stereo not given), the activity change, negative = inhibition [1] is reported as inconclusive: -2.51%, the Potency [3] is reported as inconclusive: 13.3 µM [rising, partial curve, poor fit] and the Potency [6] is reported as “inactive”.
In the case of `N[C@@H](C(=O)N[C@@H]1C(=O)N2C(C(=O)O)=C(Cl)CC[C@H]12)c1ccccc1`, the activity change, negative = inhibition [1] is reported as inconclusive: 22.3%, the Potency [4] is reported as “inactive” and the Potency [19] is reported as “inactive”. The Potency [20] was “inactive”, the activity change, negative = inhibition [13] was inconclusive: 11.2% and the Potency [18] was inconclusive: 16.8 µM [cytotoxic, single point].
In the case of `CCCCC[C@H](O)/C=C/[C@H]1[C@H](O)CC(=O)[C@@H]1CCCCCCC(=O)O`, the Potency [1] is reported as inconclusive: 5.12 µM [fluorescent, full curve, poor fit], the Potency [2] is reported as inconclusive: 14.3 µM [cytotoxic, single point] and the Potency [15] is reported as inconclusive: 14.3 µM [cytotoxic, single point]. The Potency [11] was inconclusive: 0.9 nM [cytotoxic, full curve, poor fit], the Potency [20] was inconclusive: 2.6 nM [activator, full curve, poor fit] and the Potency [6] was “inactive”. For the same molecule, the Potency [13] was inconclusive: 0.1 nM, the Potency [18] was “inactive” and the Potency [7] was inconclusive: 11.5 µM [single point].
With `CCN(CC)CCNC(=O)c1ccc(NS(C)(=O)=O)cc1` the Potency [1] was “inactive”, the Potency [3] was “inactive” and the Potency [6] was inconclusive: 6.74 µM [rising, partial curve, poor fit]. The Potency [18] was inconclusive: 18.8 µM [cytotoxic, single point].
In the case of `CC[C@]1(O)CC2CN(CCc3c([nH]c4ccccc34)[C@@](C(=O)OC)(c3cc4c(cc3OC)N(C)[C@H]3[C@@](O)(C(N)=O)[C@H](O)[C@]5(CC)C=CCN6CC[C@]43[C@@H]65)C2)C1` (stereo not given in full), the Potency [1] is reported as inconclusive: 0.19 µM [activator, full curve], the Potency [3] is reported as active: 0.0531 µM and the Potency [16] is reported as active: 213 nM. For the same molecule, the activation [19] was inconclusive: -9.38% [phenotype inactive], the Potency [20] was inconclusive: 84.9 nM [inhibitor, full curve, poor fit] and the Potency [6] was inconclusive: 1.51 µM [rising, full curve, poor fit]. For the same molecule, the Potency [12] was inconclusive: 120 nM [falling, full curve], the Potency [13] was active: 150 nM and the Potency [18] was inconclusive: 2.37 µM [cytotoxic, full curve]. For the same molecule, the Potency [10] was inconclusive: 2.37 µM [cytotoxic, full curve], the Potency [8] was inconclusive: 13.3 µM [activator, single point] and the Potency [14] was inconclusive: 2.37 µM [falling, partial curve, poor fit]. The Potency [7] was inconclusive: 0.213 µM [inhibitor, partial curve, poor fit].
